About 9,900 (2.8%) of roughly 350,000 compounds were called active. Inconclusive results, whose numbers are uncertain, are shown with a selection of clear calls. Calls come from the whole dose curve; as a rule, active = well fitted activation curve with a large enough effect; inconclusive = small, poorly fitted or top-dose-only effect; inactive = no such curve, though single readings can be large or run the other way. No potency is given beside an inconclusive call; the fits are too rough.
Test: A quantitative high throughput screen for small molecules that induce DNA re-replication in MCF 10a normal breast cells. Note: nearly all actives have a fitted effect of over 50% in size.
Settings: MCF 10A DNA re-replication, Hoechst nuclear intensity, 48 h; series mostly up to 46.1 µM
Potency is the fitted concentration of half-maximal effect; tags give direction and shape of the fitted curve.

SMILES | Potency
Cn1c(NC2CCCCC2)cc(=O)n(C)c1=O | inactive
Cc1cccc(NC(=O)c2nc[nH]c2C(=O)N[C@@H](C)C(=O)OCc2ccccc2)c1 | inconclusive [activator, full curve, poor fit]
COc1ccc(N2CC(C(=O)Nc3c4c(nn3-c3ccccc3)CS(=O)(=O)C4)CC2=O)cc1 (stereo not given) | inconclusive [activator, single point]
Cc1cc(N2CCN(S(=O)(=O)c3ccc(Cl)cc3)CC2)c2ccccc2n1 | inactive
CN(C)CCCNC(=O)/C(=C\c1ccc(-c2cccc([N+](=O)[O-])c2)o1)NC(=O)c1ccccc1 | inactive
O=C(c1ccc(S(=O)(=O)N2CCCCC2)cc1)N1CCc2ccccc2C1 | inconclusive [activator, partial curve, poor fit]
Cc1cccc(NC(=S)N2CCN(Cc3ccccc3)CC2)c1C | inconclusive [activator, full curve, poor fit]
O=C(OCC12CC3CC(CC(C3)C1)C2)c1ccc(NCc2cc(O)ccc2O)cc1 | inactive
Cc1ccc(NC2=C/C(=N/S(=O)(=O)c3cccs3)c3ccccc3C2=O)cc1 | active: 8.2 µM
Cc1csc(NC(=S)Nc2cccc(Cl)c2)n1 | active: 20.6 µM
CCOC(=O)CSCC(=O)N1N=C(c2cccs2)CC1c1ccc(F)cc1 (stereo not given) | inactive
Oc1ccc(/C(Cc2ccccn2)=N\Nc2ccccc2)c(O)c1 | inconclusive [activator, partial curve, poor fit]
Cc1cc(C)c2nc(SC(C)C#N)cc(C)c2c1 (stereo not given) | inconclusive [activator, partial curve]
COc1cc(OC)c(C(=O)O/N=C(\N)c2ccccn2)cc1OC | inactive
CC(C)(C)C(=O)/C(=C/c1ccncc1)n1cncn1 | inconclusive [activator, partial curve, poor fit]
CCN1CCN(c2nc(-c3ccccc3)c3ccccc3n2)CC1 | active: 14.6 µM
CCCN1CCc2c(sc(NC(=O)c3ccc(S(=O)(=O)N(C)c4ccccc4)cc3)c2C(=O)NC)C1 | inconclusive [activator, single point]
COC(=O)c1c(-c2c(Cl)cccc2Cl)noc1NC(=O)NN1CCOCC1 | inactive
O=S1(=O)C=C(Oc2ccc3ccccc3c2)c2ccccc21 | inconclusive [activator, single point]
COc1ccc(C(=O)NNC(=O)CCn2nnc(-c3ccc(C)cc3)n2)cc1OC | inconclusive [activator, partial curve, poor fit]
S=C(Nc1ccc(Cl)cc1)NC1CC2CCC(C1)N2Cc1ccccc1 (stereo not given) | inconclusive [activator, single point]
O=C(c1ccc(OC2CCN(Cc3ccccn3)CC2)cc1)N1CCC[C@H]1CO | inconclusive [activator, single point]
Oc1ccc(Br)cc1CNc1cccc2cccnc12 | inconclusive [activator, single point]

SMILES | Potency
Cc1ccc(C(=O)c2no[n+]([O-])c2C(=O)c2ccc(C)cc2)cc1 | active: 7.31 µM
O=S(=O)(/N=C(\Nc1ccc(F)cc1)C(F)(F)F)c1ccccc1 | inconclusive [activator, single point]
COc1cc(C(=O)O/N=C(\N)Cc2ccc([N+](=O)[O-])cc2)cc(OC)c1OC | inconclusive [activator, single point]
COc1ccccc1N(C)S(=O)(=O)c1ccc(C(=O)NCC2CCCCC2)cc1 | inactive
CCOC(=O)CNC(=O)CSc1ncnc2c1cnn2Cc1ccccc1 | inactive
Cc1c(Cl)cccc1NC(=O)Cn1c(CCC(=O)O)ccc1-c1ccccc1 | inactive
Cn1nnnc1Sc1ncnc2scc(-c3cc4ccccc4o3)c12 | inconclusive [activator, partial curve, poor fit]
c1ccc(Cn2c(SCc3nc4ccccc4s3)nnc2-c2ccco2)cc1 | inconclusive [activator, single point]
COC(=O)Nc1ccc(SCC(=O)c2cccc([N+](=O)[O-])c2)cc1 | active: 23.1 µM
CC(C)c1ccc2[nH]c(O)c(N=NC(=O)c3cccc(S(=O)(=O)Nc4ccccc4Cl)c3)c2c1 | active: 14.6 µM
CC1CCC(C(C)C)C(OC(=O)C2=C3c4ccccc4S(=O)(=O)N3CC2)C1 (stereo not given) | inconclusive [activator, partial curve]
Cc1cc(C(=O)N/N=C2\CC(=O)CC(C)(C)C2)c(C)n1-c1ccccc1 | active: 20.6 µM
O=C(CCN1CCN2CCCC2C1)N1c2ccccc2Sc2ccc(Cl)cc21 (stereo not given) | inconclusive [activator, partial curve, poor fit]
CCOC(=O)c1cc(-c2cccs2)nc2c1c(C)nn2-c1ccccn1 | inconclusive [activator, single point]
C/C=C(/CCC1NCCc2c1[nH]c1ccccc21)[Si](C)(C)C (stereo not given) | inconclusive [activator, single point]
COCCNC(=S)N/N=C(\C)c1ccc2cc(OC)ccc2c1 | inconclusive [activator, single point]
CCCCC(CC)COC(=O)c1ccccc1O (stereo not given) | inactive
COc1ccc2nc(N3CCCCC3)c(C#N)cc2c1 | active: 16.4 µM
C=CCOC(=O)C1=C(C)NC(C)=C(C(=O)OCC=C)C1c1ccco1 | inconclusive [activator, single point]
Cc1ccc(C23CC4CC(CC(C(=O)NN)(C4)C2)C3)cc1 | inconclusive [activator, full curve]
O=C(NCc1cccnc1)NC1(C(F)(F)F)Oc2ccccc2O1 | inconclusive [activator, partial curve, poor fit]
CC(=O)CSc1ncnc2nc[nH]c12 | inconclusive [activator, partial curve, poor fit]
